Laboratory results: publication PMC4110037
No constants are given. Whether binding was seen depends on the method and setting. Some binding calls cover weakened binding; strength is not graded here.

Tests used:
[1] = molecular target: T1, Pto kinase (Solanum pimpinellifolium) (UniProt Q40234); assay: two-hybrid; LexA yeast two-hybrid: Pto or Fen in the bait vector pEG202, AvrPtoB forms in the prey vector pJG4-5, S. cerevisiae EGY48 with reporter plasmid pSH18-34; X-Gal staining on raffinose/galactose plates monitored for 24 to 48 hrs
T1 sequence: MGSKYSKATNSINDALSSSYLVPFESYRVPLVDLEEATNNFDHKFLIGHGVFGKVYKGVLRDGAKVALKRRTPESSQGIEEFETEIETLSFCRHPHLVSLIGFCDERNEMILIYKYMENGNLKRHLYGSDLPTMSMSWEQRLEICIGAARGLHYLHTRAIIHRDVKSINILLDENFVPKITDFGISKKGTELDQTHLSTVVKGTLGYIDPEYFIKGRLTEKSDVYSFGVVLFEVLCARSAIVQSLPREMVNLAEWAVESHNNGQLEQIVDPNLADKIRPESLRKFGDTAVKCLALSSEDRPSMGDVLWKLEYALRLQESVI

[2] = molecular target: T2, Fen kinase (Solanum pimpinellifolium) (UniProt Q40126); assay: as above
T2 sequence: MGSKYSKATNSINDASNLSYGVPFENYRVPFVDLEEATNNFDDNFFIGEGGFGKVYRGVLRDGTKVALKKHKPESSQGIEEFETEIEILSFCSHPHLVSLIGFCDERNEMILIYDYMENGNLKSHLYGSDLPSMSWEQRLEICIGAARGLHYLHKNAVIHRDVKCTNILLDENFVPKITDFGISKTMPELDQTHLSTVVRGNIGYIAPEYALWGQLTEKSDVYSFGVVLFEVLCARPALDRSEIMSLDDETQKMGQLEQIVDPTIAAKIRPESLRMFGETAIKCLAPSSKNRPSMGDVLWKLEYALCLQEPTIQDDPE

Substance	binding [1]	binding [2]
AvrPtoB (from UniProt Q8RSY1 1-553)	binds	–
AvrPtoB(F173A/E3-LOF) (from UniProt Q8RSY1 1-553)	binds	–
AvrPtoB(F173A/G325A/E3-LOF) (from UniProt Q8RSY1 1-553)	no binding	–
AvrPtoB(F479A/F525A/P533A) (from UniProt Q8RSY1 1-553)	binds	binds
AvrPtoB(G325A/E3-LOF) (from UniProt Q8RSY1 1-553)	binds	no binding
AvrPtoB(T450A) (from UniProt Q8RSY1 1-553)	binds	–
AvrPtoB(T450D) (from UniProt Q8RSY1 1-553)	binds	no binding
AvrPtoB_(1–307) (from UniProt Q8RSY1 1-307) (domain or fragment)	binds	no binding
AvrPtoB_(1–307)(F173A) (from UniProt Q8RSY1 1-307) (domain or fragment)	no binding	–
AvrPtoB_(1–387) (from UniProt Q8RSY1 1-387) (domain or fragment)	binds	binds
AvrPtoB_(1–387)(F173A) (from UniProt Q8RSY1 1-387) (domain or fragment)	binds	–
AvrPtoB_(1–387)(F173A/G325A) (from UniProt Q8RSY1 1-387) (domain or fragment)	no binding	–
AvrPtoB_(1–387)(G325A) (from UniProt Q8RSY1 1-387) (domain or fragment)	binds	no binding
PID:E3-LOF (from UniProt Q8RSY1 121-200; Q8RSY1 388-533)	binds	–
